# Experimental data from publication PMC12820563, “FoxP3 forms a head-to-head dimer in vivo and stabilizes its multimerization on adjacent microsatellites”.
# This is one part of the list.
# Biological target: T1, MBP-FoxP1dN (Mus musculus, UniProt P58462 326-579)
# T1 sequence: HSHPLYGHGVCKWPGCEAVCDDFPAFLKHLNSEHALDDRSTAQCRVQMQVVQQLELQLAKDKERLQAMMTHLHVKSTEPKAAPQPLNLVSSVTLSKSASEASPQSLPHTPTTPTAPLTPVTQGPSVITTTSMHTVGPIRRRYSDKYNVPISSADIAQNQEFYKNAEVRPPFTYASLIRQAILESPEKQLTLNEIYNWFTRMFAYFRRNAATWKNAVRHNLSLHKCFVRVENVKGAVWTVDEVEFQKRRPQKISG
# Experiment: PD-seq (MBP pull-down with sequencing); 20 mM Tris-HCl pH 7.5, 100 mM NaCl, 1.5 mM MgCl2, 0.4 uM protein, 0.1 uM dsDNA library, 30 min, room temperature, amylose pull-down; high values mean tight binding
# Conditions: protein: recombinant; tags: His6-MBP; chain copies: 2; dsDNA, one strand shown
# How it was run: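 Mouse FoxP3 or FoxP1 fragment lacking the N-terminus, His6-MBP-tagged and expressed in E. coli, was incubated at 0.4 µM with 0.1 µM Klenow-filled degenerate double-stranded DNA library for 30 min at room temperature in Tris pH 7.5 buffer with NaCl and MgCl2. Complexes captured on amylose resin were washed three times and their DNA sequenced on Illumina. Binding is reads-per-million enrichment of pull-down over input, replicates pooled.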
row,Sequence,binding signal
1,GATGATTGTTCTCCCAGCTGATGAATTTATAACATCGAGTAAACAAATTTTCCTAATCTTTCTGTTCAAGCGCCATCTAC,1.31 RPM ratio (pull-down/input)
2,GATGATTGTTCTCCCAGCTGATGAATTGTAGGTATCGAGTAAACAAATTTTCCTAATCTTTCTGTTCAAGCGCCATCTAC,1.12 RPM ratio (pull-down/input)
3,GATGATTGTTCTCCCAGCTGATGAATTGCAGTCTTCGAGTAAACAAATTTTCCTAATCTTTCTGTTCAAGCGCCATCTAC,1.14 RPM ratio (pull-down/input)
4,GATGATTGTTCTCCCAGCTGATGAATTCTATGTTTCGAGTAAACAAATTTTCCTAATCTTTCTGTTCAAGCGCCATCTAC,1.17 RPM ratio (pull-down/input)
5,GATGATTGTTCTCCCAGCTGATGAATTAGAAAAATCGAGTAAACAAATTTTCCTAATCTTTCTGTTCAAGCGCCATCTAC,1.04 RPM ratio (pull-down/input)
6,GATGATTGTTCTCCCAGCTGATGAATTGCGCCACTCGAGTAAACAAATTTTCCTAATCTTTCTGTTCAAGCGCCATCTAC,1.04 RPM ratio (pull-down/input)
7,GATGATTGTTCTCCCAGCTGATGAATTAGCGACATCGAGTAAACAAATTTTCCTAATCTTTCTGTTCAAGCGCCATCTAC,0.993 RPM ratio (pull-down/input)
8,GATGATTGTTCTCCCAGCTGATGAATTGAGTCTGTCGAGTAAACAAATTTTCCTAATCTTTCTGTTCAAGCGCCATCTAC,0.855 RPM ratio (pull-down/input)
9,GATGATTGTTCTCCCAGCTGATGAATTATTCTAGTCGAGTAAACAAATTTTCCTAATCTTTCTGTTCAAGCGCCATCTAC,0.986 RPM ratio (pull-down/input)
10,GATGATTGTTCTCCCAGCTGATGAATTTGTCAGGTCGAGTAAACAAATTTTCCTAATCTTTCTGTTCAAGCGCCATCTAC,0.921 RPM ratio (pull-down/input)
11,GATGATTGTTCTCCCAGCTGATGAATTGTTCTTATCGAGTAAACAAATTTTCCTAATCTTTCTGTTCAAGCGCCATCTAC,1.41 RPM ratio (pull-down/input)
12,GATGATTGTTCTCCCAGCTGATGAATTTTATCTCTCGAGTAAACAAATTTTCCTAATCTTTCTGTTCAAGCGCCATCTAC,0.885 RPM ratio (pull-down/input)
13,GATGATTGTTCTCCCAGCTGATGAATTAATGGGTTCGAGTAAACAAATTTTCCTAATCTTTCTGTTCAAGCGCCATCTAC,0.881 RPM ratio (pull-down/input)
14,GATGATTGTTCTCCCAGCTGATGAATTCCTAGACTCGAGTAAACAAATTTTCCTAATCTTTCTGTTCAAGCGCCATCTAC,0.82 RPM ratio (pull-down/input)
15,GATGATTGTTCTCCCAGCTGATGAATTCATTAAGTCGAGTAAACAAATTTTCCTAATCTTTCTGTTCAAGCGCCATCTAC,0.936 RPM ratio (pull-down/input)
16,GATGATTGTTCTCCCAGCTGATGAATTGTCACATTCGAGTAAACAAATTTTCCTAATCTTTCTGTTCAAGCGCCATCTAC,1.2 RPM ratio (pull-down/input)

row,Sequence,binding signal
1,GATGATTGTTCTCCCAGCTGATGAATTTCGGGTCTCGAGTAAACAAATTTTCCTAATCTTTCTGTTCAAGCGCCATCTAC,0.759 RPM ratio (pull-down/input)
2,GATGATTGTTCTCCCAGCTGATGAATTCGTGGTCTCGAGTAAACAAATTTTCCTAATCTTTCTGTTCAAGCGCCATCTAC,0.82 RPM ratio (pull-down/input)
3,GATGATTGTTCTCCCAGCTGATGAATTTATGCCCTCGAGTAAACAAATTTTCCTAATCTTTCTGTTCAAGCGCCATCTAC,1.02 RPM ratio (pull-down/input)
4,GATGATTGTTCTCCCAGCTGATGAATTATGACCGTCGAGTAAACAAATTTTCCTAATCTTTCTGTTCAAGCGCCATCTAC,0.927 RPM ratio (pull-down/input)
5,GATGATTGTTCTCCCAGCTGATGAATTATCCCTCTCGAGTAAACAAATTTTCCTAATCTTTCTGTTCAAGCGCCATCTAC,0.912 RPM ratio (pull-down/input)
6,GATGATTGTTCTCCCAGCTGATGAATTCTAATTGTCGAGTAAACAAATTTTCCTAATCTTTCTGTTCAAGCGCCATCTAC,1.29 RPM ratio (pull-down/input)
7,GATGATTGTTCTCCCAGCTGATGAATTTGCATCCTCGAGTAAACAAATTTTCCTAATCTTTCTGTTCAAGCGCCATCTAC,1.77 RPM ratio (pull-down/input)
8,GATGATTGTTCTCCCAGCTGATGAATTCGGATAGTCGAGTAAACAAATTTTCCTAATCTTTCTGTTCAAGCGCCATCTAC,0.83 RPM ratio (pull-down/input)
9,GATGATTGTTCTCCCAGCTGATGAATTTCTAGGGTCGAGTAAACAAATTTTCCTAATCTTTCTGTTCAAGCGCCATCTAC,0.71 RPM ratio (pull-down/input)
10,GATGATTGTTCTCCCAGCTGATGAATTACACTCCTCGAGTAAACAAATTTTCCTAATCTTTCTGTTCAAGCGCCATCTAC,0.964 RPM ratio (pull-down/input)
11,GATGATTGTTCTCCCAGCTGATGAATTATAATCATCGAGTAAACAAATTTTCCTAATCTTTCTGTTCAAGCGCCATCTAC,1.29 RPM ratio (pull-down/input)
12,GATGATTGTTCTCCCAGCTGATGAATTGGGTAAATCGAGTAAACAAATTTTCCTAATCTTTCTGTTCAAGCGCCATCTAC,1.17 RPM ratio (pull-down/input)
13,GATGATTGTTCTCCCAGCTGATGAATTAGAGATATCGAGTAAACAAATTTTCCTAATCTTTCTGTTCAAGCGCCATCTAC,0.998 RPM ratio (pull-down/input)
14,GATGATTGTTCTCCCAGCTGATGAATTGGACCTTTCGAGTAAACAAATTTTCCTAATCTTTCTGTTCAAGCGCCATCTAC,0.813 RPM ratio (pull-down/input)
15,GATGATTGTTCTCCCAGCTGATGAATTACGGAGATCGAGTAAACAAATTTTCCTAATCTTTCTGTTCAAGCGCCATCTAC,0.932 RPM ratio (pull-down/input)
